Measurements as given in the RNAGym collection of RNA variant scans (doi:10.1093/nar/gkz1192).
Read counts are not given, so values of variants with three or more changes are uncertain.

B1: CPEB3 Ribozyme (parent)
chain: UAACAGGGGGCCACAGCAGAAGCGUUCACGUCGCAGCCCCUGUCAGAUUCUGGUGAAUCUGCGAAUUCUGCUGUAUAUCUC

Variants of: B1
Test: self-cleavage, relative activity (ratio to wild type); higher = more cleavage; in vitro, sequencing
Outline: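 Libraries of CPEB3 self-cleaving ribozyme mutants came from rounds of error-prone PCR and carried barcodes, which DNA sequencing matched to variants. In vitro transcription used T7 RNA polymerase at 37°C for 5 hours, with a further 15 min in DNase I before EDTA stopped the reaction; the ribozymes cleaved during both steps. The RNA was reverse transcribed with template switching and sequenced on Illumina. Relative activity is the cleaved/total read fraction of a variant divided by that of the unmutated ribozyme, averaged over three batches with at least 5 reads.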
UAACAGGGGGCCACAGCAGAAGCGUUCACGUCGUAGCCCCUGUCAGAUUUUGGUGAUUCUGCGAAUUCUGCUGUAUAUCUC showed a self-cleavage of 0.11.
With UAACAGGGGGCCACAGCAGAAGCGUUCACGUCGUAGCCCCUGUCAGAUUCUGGCGAAUCUGCGAACUCUGCUGUAUAUCUC the self-cleavage was 0.15.
Work on UAACAGGGGGCCACAGCAGAAGCGUUCACGUCGUAGCCCCUGUCAGAUUCAGGUGGAUCUGCGAAUUCUGCUGUAUAUCUC yielded a self-cleavage of 0.16.
For UAACAGGGGGCCACAGCAGAAGCGUUCACGUCGUAGCCCCUGACAGAUUCUGGUGAAUCUGCGAAAUCUGCUGUAUACCUC, the self-cleavage was 0.24.
Variant UAACAGGGGGCCACAGCAGAAGCGUUCACGUCGCCGCCCCUGUCGGAUUCUGGUGAAUCUGCGAAUUCUGCAGUAUAUCUC has a self-cleavage of 0.34.
UAACAGGGGGCCACAGCAGAAGCGUUCACGUCGUAGCCCGAGUCAGAUUCUGGUGAAUCUGCGAAUUCUGCUGUAUAUCUC gave a self-cleavage of 0.15.
UAACAGGGGGCCACAGCAGAAGCGUUCACGUCGUAGCCCCUGUCAGAUUCUGGUGGAUCUGCGAAUUCUGCUGUAUAUCCC showed a self-cleavage of 0.49.
For UAACAGGGGGCCACAGCAGAAGCGUUCACGUCGGAGCCCCUGUCAGAUGCUGGUGAAUCUGCGAAUUCUGCUGUAUAACUC, the self-cleavage was 0.22.
Variant UAACAGGGGGCCACAGCAGAAGCGUUCACGUCGUAGCCCCUGUCAGCCUCUGGUGAAUCUGCGGACUCUGCAGUAUUUCUC has a self-cleavage of 0.1.
Variant UAACAGGGGGCCACAGCAGAAGCGUUCACGUCGGAGCCCCUGUCAGAUUCUGGUGAAUCUGCGAAUUCAGCUGUAUAUCCC has a self-cleavage of 0.28.
In the case of UAACAGGGGGCCACAGCAGAAGCGUUCACGUCGGAGCCCCUGUCAGAUUCUGGUGAAUCUGCGAAUCCUGCCGUAUAUCUC, the self-cleavage is reported as 0.17.
In the case of UAACAGGGGGCCACAGCAGAAGCGUUCACGUCGUAGCCCCUGUCUGAUUCUGGUGAAUCUCCGAAUCCUGCUGUAAAUCUC, the self-cleavage is reported as 0.08.
Work on UAACAGGGGGCCACAGCAGAAGCGUUCACGUCGUAGCCCCUGUCAGAUUCCGGUGAAUCUGCGAAUUCUGCUGUAUAUCCC yielded a self-cleavage of 0.46.
UAACAGGGGGCCACAGCAGAAGCGUUCACGUCGUAGCCCAUGUCAGAUCCUGGUGAGUCUGCGAAUUCUGCUGCAUAUCUC gave a self-cleavage of 0.08.
UAACAGGGGGCCACAGCAGAAGCGUUCACGUCGUAGCCCCUGUCAGACUCUGGUGAAUCUGCGAACUCUGCUGUAUUUCUC showed a self-cleavage of 0.16.
For UAACAGGGGGCCACAGCAGAAGCGUUCACGUCGGAGCCCCUGUCAGAUGCUGGUGAAUCUGCGGAUUCUGCUGUAUAUCUC, the self-cleavage was 0.09.
UAACAGGGGGCCACAGCAGAAGCGUUCACGUCGUAGCCCCUGUCAGAUUCAGGUGAAUCUGCGAAUUCUGCUGUUUAUCUC gave a self-cleavage of 0.45.
For UAACAGGGGGCCACAGCAGAAGCGUUCACGUCGUGGCCCCUGUCAGACUCUGGUGAAUCUGCGAAUUCUGCUGUAUAUCUC, the self-cleavage was 0.12.
For UAACAGGGGGCCACAGCAGAAGCGUUCACGUCGCCGCCCCUGUCGGAUUCUGGCGAAUCUGCGAAUUCUGCUGUUUAUCUC, the self-cleavage was 0.54.
For UAACAGGGGGCCACAGCAGAAGCGUUCACGUCGUAGCCCCUGUCAGAUUCUGGUGAAUCCGCGGAUUCUGCUGUAUAUCUC, the self-cleavage was 0.35.
With UAACAGGGGGCCACAGCAGAAGCGUUCACGUCGUAGCCCCUGUCAGAUACUGGUGAAUCUGCGAACUCUGCUGUAUAUCUC the self-cleavage was 0.13.
UAACAGGGGGCCACAGCAGAAGCGUUCACGUCGUAGCCCCUGUCUGAUUCUGGCGAGUCUGUGAAUUCAGCUGUAUAUCUC gave a self-cleavage of 0.06.
UAACAGGGGGCCACAGCAGAAGCGUUCACGUCGUAGCCCCUGUCUGAUUCUGGUGAAUCUGCGAGUUCUGCUGUAUAUCUC showed a self-cleavage of 0.13.
UAACAGGGGGCCACAGCAGAAGCGUUCACGUCGUAGCCCCUGCCAGAUUCUGGUGAAUCUGCGAAUUCUGCUGUAUACCUC showed a self-cleavage of 0.1.
For UAACAGGGGGCCACAGCAGAAGCGUUCACGUCGCCGCCCCUGUCUGAUUCUGGUGAAUCCGCGAACUCUGCUGUAUAUCUC, the self-cleavage was 0.1.
In the case of UAACAGGGGGCCACAGCAGAAGCGUUCACGUCGUAGCCCCUGUCAGAUUCCGGAGAAUCUGCGAAUUCUGCCGUAUAUCUC, the self-cleavage is reported as 0.29.
For UAACAGGGGGCCACAGCAGAAGCGUUCACGUCGCCGCCCCUGUCAGGUUCUGUUGAAUCUGCGAAUUCUGCUGUAUAUCUC, the self-cleavage was 0.81.
Work on UAACAGGGGGCCACAGCAGAAGCGUUCACGUCGUAGCCCCUGUCGGAUUCUGGUGAAUCUGCGGAUUCUGCUGUUUAUCCC yielded a self-cleavage of 0.11.
In the case of UAACAGGGGGCCACAGCAGAAGCGUUCACGUCGUAGCCACUGUCAGAUUCUGGUGACUCUGCGAAUUCUGCUGUAUAUCUC, the self-cleavage is reported as 0.11.
UAACAGGGGGCCACAGCAGAAGCGUUCACGUCGUAGCCCCUGUCAGAUUCUGGUGAAUCUGCAAAUUCUGCUGUAUGUCCC gave a self-cleavage of 0.14.
In the case of UAACAGGGGGCCACAGCAGAAGCGUUCACGUCGUAACCCCUGUCAGAUUCUGGUGAAUCAGCGAAUUCUGCUGUAUACCUC, the self-cleavage is reported as 0.15.
In the case of UAACAGGGGGCCACAGCAGAAGCGUUCACGUCGUAGCCCCUGUCAGAUUCUGGGGAAUCUGCGAAUUCUGCUGUAUAUUUC, the self-cleavage is reported as 0.32.
UAACAGGGGGCCACAGCAGAAGCGUUCACGUCGUAGCCCUUGUCAGGUUCUGGUGAAUCUGCGAAUUCCGCUGUAUAUCUC gave a self-cleavage of 0.08.
In the case of UAACAGGGGGCCACAGCAGAAGCGUUCACGUCGUGGCCCCUGUCAGAUUCUGGUGAAUCUGCGAAUUCUGCCGUAUACCUC, the self-cleavage is reported as 0.39.
